This is one part of the list.
B1: PhoQ; a variant is named by its letters at X, in order, P23837 (parent)
chain: MKKLLRLFFPLSLRVRFLLATAAVVLVLSLAYGMVALIGYSVSFDKTTFRLLRGESNLFYTLAKWENNKLHVELPENIDKQSPTMTLIYDENGQLLWAQRDVPWLMKMIQPDWLKSNGFHEIEADVNDTSLLLSGDHSIQQQLQEVREDDDDAEMTHSVAVNVYPATSRMPKLTIVVVDTIPVELKSSYMVWSWFIYVLSANLLLVIPLLWVAAWWSLRPIEALAKEVRELEEHNRELLNPATTRELTSLVRNLNRLLKSERERYDKYRTTLTDLTHSLKTPLXXLQXXLRSLRSEKMSVSDAEPVMLEQISRISQQIGYYLHRASMRGGTLLSRELHPVAPLLDNLTSALNKVYQRKGVNISLDISPEISFVGEQNDFVEVMGNVLDNACKYCLEFVEISARQTDEHLYIVVEDDGPGIPLSKREVIFDRGQRVDTLRPGQGVGLAVAREITEQYEGKIVAGESMLGGARMEVIFGRQHSAPKDE

Variants of: B1
Assay: enrichment ratio after two sorts for PhoP signalling (ratio (wild type AVST 3.29)); higher = more functional
Conditions: with PhoP (E. coli)

Variant | enrichment ratio
LCYE | ≤ 0.25
LEWD | ≤ 0.25
YDGP | ≤ 0.25
WSPF | ≤ 0.25
WNTM | ≤ 0.25
VNFR | ≤ 0.25
VRHC | ≤ 0.25
CFLC | ≤ 0.25
MQTL | ≤ 0.25
VHWW | ≤ 0.25
RCWL | ≤ 0.25
PRAA | ≤ 0.25
PFPR | ≤ 0.25
SNTT | 3.46
RRSR | ≤ 0.25
AMMV | 21.8
GHAC | ≤ 0.25
HLQF | ≤ 0.25
KSMI | ≤ 0.25
QFLA | ≤ 0.25
YAIK | ≤ 0.25
VGCT | ≤ 0.25
FSRK | ≤ 0.25
LEVT | ≤ 0.25
QEEG | ≤ 0.25
GLVR | ≤ 0.25

Variant | enrichment ratio
LQTA | ≤ 0.25
VNDR | ≤ 0.25
EQFL | ≤ 0.25
RKGA | ≤ 0.25
NLPY | ≤ 0.25
AFLF | 0.946
NMND | ≤ 0.25
VDMA | ≤ 0.25
ETFS | ≤ 0.25
YQWR | ≤ 0.25
DDRD | ≤ 0.25
VPIV | ≤ 0.25
MVIG | ≤ 0.25
RQPI | ≤ 0.25
YRGF | ≤ 0.25
NQYD | ≤ 0.25
VIMG | ≤ 0.25
EHLV | ≤ 0.25
HPRN | ≤ 0.25
VMRM | ≤ 0.25
GSEF | 2.41
TECI | 2.38
MRSG | ≤ 0.25
FEMD | ≤ 0.25
LCTN | ≤ 0.25
NRVH | ≤ 0.25

Variant | enrichment ratio
GHKN | ≤ 0.25
NSRN | ≤ 0.25
INII | ≤ 0.25
PLIQ | ≤ 0.25
FYGC | ≤ 0.25
QHYQ | ≤ 0.25
NKWY | ≤ 0.25
IGRE | ≤ 0.25
EGMT | ≤ 0.25
VSVF | ≤ 0.25
SGGH | 4.82
FDPQ | ≤ 0.25
VIDS | ≤ 0.25
GDYD | 3.11
LKSF | ≤ 0.25
LWIP | ≤ 0.25
PMGR | 0.412
AFYR | ≤ 0.25
QEPS | ≤ 0.25
DFRW | ≤ 0.25
FRQK | ≤ 0.25
NELF | ≤ 0.25
NGCH | ≤ 0.25
GITM | 10.3
STGS | 7.29
DLVN | ≤ 0.25

Variant | enrichment ratio
KMRW | ≤ 0.25
SRAE | ≤ 0.25
INSQ | ≤ 0.25
MYRG | ≤ 0.25
DMWL | ≤ 0.25
LGVT | ≤ 0.25
SHYH | ≤ 0.25
ISQA | ≤ 0.25
SRVN | ≤ 0.25
ICNI | ≤ 0.25
DPPK | ≤ 0.25
ETVR | ≤ 0.25
WMHF | ≤ 0.25
IASD | ≤ 0.25
FWEF | ≤ 0.25
NLML | ≤ 0.25
VWHW | ≤ 0.25
VVCG | ≤ 0.25
TQAM | 25.5
LEGK | ≤ 0.25
LQPP | ≤ 0.25
ANSC | 11.9
ICFT | ≤ 0.25
KEWL | ≤ 0.25
RHMY | ≤ 0.25
ICPW | ≤ 0.25

Variant | enrichment ratio
LKMY | ≤ 0.25
WEVL | ≤ 0.25
SYKL | ≤ 0.25
ESHA | ≤ 0.25
TSEG | ≤ 0.25
DTNP | ≤ 0.25
GPIT | ≤ 0.25
WDNQ | ≤ 0.25
ASLY | 13.9
EHAS | ≤ 0.25
FEEY | ≤ 0.25
KCLV | ≤ 0.25
HFAY | ≤ 0.25
RQNH | ≤ 0.25
KFKM | ≤ 0.25
AIPR | ≤ 0.25
SNLR | 3.15
DWFE | ≤ 0.25
EDDC | ≤ 0.25
ENIF | ≤ 0.25
MLKH | ≤ 0.25
VCQR | ≤ 0.25
HMMP | ≤ 0.25
HFVC | ≤ 0.25
QICC | ≤ 0.25
FSMM | 4.33

Variant | enrichment ratio
IEEL | ≤ 0.25
QTNF | 2.39
ASFF | ≤ 0.25
EHYL | ≤ 0.25
YDKD | ≤ 0.25
VRTD | ≤ 0.25
ELFG | ≤ 0.25
PHNI | ≤ 0.25
RYWD | ≤ 0.25
EPIV | ≤ 0.25
WAWF | ≤ 0.25
FSTD | ≤ 0.25
FPQN | ≤ 0.25
DDDR | ≤ 0.25
IDCG | ≤ 0.25
RRNW | ≤ 0.25
IILE | ≤ 0.25
LTAL | ≤ 0.25
ILDE | ≤ 0.25
IERA | ≤ 0.25
WNIG | ≤ 0.25
RNRH | ≤ 0.25
VKTA | ≤ 0.25

Reference: a collection of fitness landscapes (doi:10.1126/science.1257360)
